Molecules are shown by their SMILES. About 540 (0.36%) of roughly 150,000 compounds showed an effect of 50% or more. This is one part of the list.

The test system of this test is Plasmodium falciparum. Nature of the test: Primary screen in NF54 nanoGlo assay, in single point, at 2uM, 72h; a lower Z score goes with more inhibition. Format: functional, Erythrocyte. The note with it: timepoint 72 hour.
Regarding `O=S(=O)(Oc1c(F)c(F)c(F)c(F)c1F)c1ccnc2ccccc12`, the “% Inhibition” value is reported as -7% and the Z score came to 0.92.
Taken in the same sequence, the figures for `Cc1c(CN(CCCO)Cc2cccnc2)oc2ccccc12` were -9% and 1.73.
As for `Cc1nn(C)c(C(=O)NCCS(=O)(=O)N(C)C)c1Cl`, the “% Inhibition” value is on record as -6% and the Z score stood at 1.08.
In the same order, the values of `CC(C)(C)OC(=O)N1CCC(CC(=O)N2CC(Nc3ccncn3)C2)CC1` are 0% and 0.07.
Turning to `Cn1c(COc2ccc(C(=O)NC3CC3)cc2)cc(=O)n(C)c1=O`, the “% Inhibition” value stood at 5% and the Z score is -0.9.
Taken in the same sequence, the figures for `Cn1cc(C(=O)N2CCC[C@H]2c2nnc(C3CCOCC3)[nH]2)cn1` were 4% and -0.58.
Taken in the same sequence, the figures for `CCC[C@H]1C=CCN1C(=O)c1nn2cc(C)cnc2c1Cl` were 0% and 0.01.
Take `O=C(Nc1nc(CC2CC2)ns1)c1occ2c1CCC2`: the “% Inhibition” value is recorded as -7% and the Z score is listed as 0.8.
Taken in the same sequence, the figures for `O=C(Cn1nc2ccc(C(=O)NCc3ccccc3)cn2c1=O)NCCC1=CCCCC1` were -26% and 2.29.
On to `CCC(=O)NCc1cccc(-n2ccnc2-c2cccnc2)c1`, for which the “% Inhibition” value came out at 2% and the Z score is reported as -0.39.
In the same order, the values of `Cc1cc(Cn2cc(-c3cccc(-c4ccco4)c3)nn2)n[nH]1` are 3% and -0.29.
Regarding `C[C@@H](Cn1ccc2ccccc21)NCC(=O)Nc1cnccn1`, the “% Inhibition” value is -1% and the Z score turned out to be 0.19.
Taken in the same sequence, the figures for `COc1cccc(Cn2ncc(N(C)Cc3ccccc3)cc2=O)c1OC` were -5% and 1.02.
Turning to `CN1CCN(c2cc(N3CCN(C(=O)Cc4ccccc4)CC3)ncn2)CC1`, the “% Inhibition” value was -10% and the Z score turned out to be 0.91.
In the same order, the values of `Nc1cc(C2CCN(C(=O)c3ccccc3Br)CC2)no1` are -5% and 0.75.
Taken in the same sequence, the figures for `CN(Cc1csc(-c2ccccc2)n1)C(=O)[C@@H]1Cc2ccccc2C(=O)N1` were 3% and -0.51.
For `CC(C)(C)c1nc2ccc(S(=O)(=O)N3CCC(CN)CC3)cc2s1`, the “% Inhibition” value came out at 7% and the Z score is listed as -1.01.
For `CO[C@H]1CCCN(Cc2cc3cc4c(cc3nc2-c2ccc(Cl)cc2)OCO4)C1`, the “% Inhibition” value is reported as -2% and the Z score is 0.24.
Taken in the same sequence, the figures for `C=CCN(C)C(=O)c1ccc(S(=O)(=O)N2C[C@H]3CCC[C@@]3(CO)C2)cc1` were -14% and 1.39.
In the same order, the values of `O=C1O[C@H]2CN(C3Cc4ccccc4C3)C[C@H]2N1C1CCCC1` are -5% and 0.92.
For `Fc1cccc2c1N(Cc1nc3ccccc3o1)CCC2`, the “% Inhibition” value is given as -9% and the Z score is 1.39.
In the same order, the values of `CN(Cc1cn(C)nn1)Cc1nccn1CC(F)(F)F` are 6% and -0.62.
In the case of `O=C1CC(C(=O)N[C@@H](Cc2ccccc2)c2nc3ccccc3o2)C1`, the “% Inhibition” value is -9% and the Z score is 1.26.
As to `O=C(Nc1ccccc1Oc1ccccc1)c1ccno1`, the “% Inhibition” value is reported as -13% and the Z score is on record as 2.04.

One may read the % Inhibition as the relative decrease from the control value, in per cent.

The record behind these values is ChEMBL document CHEMBL4888484, “Replenishing the malaria drug discovery pipeline: Screening and hit evaluation of the MMV Hit Generation Library 1 (HGL1) against asexual blood stage Plasmodium falciparum ,using a nano luciferase reporter read-out” (2022).
